Data as given in PubChem BioAssay (NCATS).
The inconclusive results got no clear call from the source; some entries with a clear call stand among them for comparison. For some of these results: Potencies beside an inconclusive call are fits to weak or partial responses and may not hold up. Activity calls are given as the source filed them. Unless noted, calls come from the whole dose curve; as a rule, active = well fitted curve in either direction with a large enough effect (not every such curve was filed as active); inconclusive = small, poorly fitted or top-dose-only effect, or another doubt; inactive = flat fitted curve, though single readings scatter.

What was measured:
[1] = AP1 Signaling Pathway (AID 357); conditions: ME-180 AP-1-bla reporter, EGF-induced, beta-lactamase ratio, 5 h; at 17.2 µM (top of the series) unless noted; note: top concentration of the series differs between compounds; % is set by controls: 0 for no effect and ±100 for the full control effect
Procedure, shortened: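 ME-180 cells with beta-lactamase reporter under AP-1 response element, stimulated with EC50 EGF; compounds tested in titration series, 5 h at 37 °C. CCF4 substrate added 2.5 h at room temperature; 460/530 nm emission ratio gave %activity and AC50.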

[2] = NFAT Signaling Pathway (AID 444); conditions: Jurkat NFAT-bla M1, carbachol, beta-lactamase ratio, 5 h; at 7.69 µM (top of the series) unless noted;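 note: carbachol stimulus at about its EC50 of 1 µM final; % is set by controls: 0 for no effect and ±100 for the full control effect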
Procedure, shortened: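 Jurkat cells carrying an NFAT-driven β-lactamase reporter and co-transfected muscarinic M1 receptor were treated with compound plus carbachol (1 uM final, an EC50 level) for 5 h at 37 °C. CCF4 loading followed for 1 h at RT; 460/530 nm ratio gave %activity.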

[3] = target: 3',5'-cyclic-AMP phosphodiesterase 4B (Homo sapiens) (UniProt Q07343); test: qHTS Assay for Inhibitors of PDE-IV (AID 607; active = well fitted activation curve with a large enough effect in the main read-out, with a control signal flat, not every such curve was filed as active; inconclusive = small, poorly fitted or top-dose-only effect, or effect the other way, or a change in a side signal; note: potency is the fitted concentration of half-maximal effect); conditions: HEK293 ACTOne CNG channel cells, membrane potential fluorescence; activation (PDE inhibition): at 22.9 µM (top of the series)
Procedure, shortened: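 Live HEK293 cells with a modified cyclic nucleotide-gated (CNG) channel report intracellular cAMP via membrane-potential dye fluorescence (ex 535/em 590 nm). Endogenous PDE-IV was targeted. Compounds were tested at up to 22.9 uM final; RO 20-1724 100 uM served as control.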

[4] = target: Cytochrome P450 1A2 (Homo sapiens) (UniProt P05177); test: p450-cyp1a2 (AID 410; calls by dose curve; note: potency is the fitted concentration of half-maximal effect;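 for activity change, negative = inhibition: top concentration of the series differs between compounds; -100% = full effect of reference inhibitor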)
Procedure, shortened: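 Read-out is luminescence from luciferin produced by CYP1A2 demethylation of Luciferin-ME (100uM, at Km). Detection reagent stopped the 60 min NADPH-dependent reaction; signals were normalized to 57 uM furafylline.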

[5] = target: Cytochrome P450 3A4 (Homo sapiens) (UniProt P08684); test: qHTS Assay for Activators of Cytochrome P450 3A4 (AID 885; active = well fitted curve in the direction sought with a large enough effect; inconclusive = small, poorly fitted or top-dose-only effect, or another doubt; inactive = no such curve, though single readings can be large; an effect the other way counts as inactive or inconclusive; note: potency is the fitted concentration of half-maximal effect; nearly all actives have a fitted effect of over 65% in size); conditions: recombinant CYP3A4, Luciferin-PPXE luminescence, 60 min; activity change, positive = activation: at 57.1 µM (top of the series)
Procedure, shortened: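 Using 20nM recombinant human CYP3A4 in potassium phosphate (200mM), substrate Luciferin-PPXE at 25uM, luminescent luciferin detection followed a 60-min RT NADPH reaction; data scaled to 57 uM ketoconazole.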

[6] = Stat Signaling Pathway (AID 446); conditions: ME-180 (cervical carcinoma) SIE beta-lactamase reporter, IL-6 stimulated, 5 h; at 38 µM (top of the series) unless noted;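 note: ME-180 cervical cancer cells given 40 pM IL-6 alongside compound; SIE-controlled beta-lactamase reporter measured as 460/530 nm FRET emission ratio; top concentration of the series differs between compounds; % is set by controls: 0 for no effect and ±100 for the full control effect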
Procedure, shortened: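 Overnight-plated ME-180 cells bearing a STAT Inducible Element beta-lactamase reporter; 5 h co-exposure to compound and 40 pM IL-6; values normalized to 300 pM IL-6 and 125 nM JAK inhibitor controls.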

[7] = target: Mitogen-activated protein kinase 10 (Mus musculus) (UniProt Q61831); test: JNK3 AlphaScreen Assay (AID 530); conditions: JNK3 lysate, c-Jun phosphorylation; activity change, negative = inhibition: at 57.1 µM (top of the series);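 note: kinase came from lysate of stimulated human HepG2 cells; signal reports phosphorylation of biotinylated GST-cJun 1-79 at Ser73 with 10 µM ATP; % is set by controls: 0 for no effect and ±100 for the full control effect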
Procedure, shortened: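 Biotinylated GST-cJun(1-79) served as substrate for JNK3 in HepG2 lysates stimulated with IL-1beta and TNF-alpha. ATP was 10 uM final, pH 7.6. Ser73 phosphorylation was quantified by AlphaScreen (680 nm excitation).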

[8] = target: Cytochrome P450 2C19 (Homo sapiens) (UniProt P33261); test: qHTS Assay for Inhibitors and Substrates of Cytochrome P450 2C19 (AID 899; active = well fitted curve in the direction sought with a large enough effect; inconclusive = small, poorly fitted or top-dose-only effect, or another doubt; inactive = no such curve, though single readings can be large; an effect the other way counts as inactive or inconclusive; note: top concentration of the series differs between compounds; % is set by controls: 0 for no effect and ±100 for the full control effect; nearly all actives have a fitted effect of over 60% in size)
Procedure, shortened: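 NADPH-dependent conversion of Luciferin-H EGE (10uM, at KM) by 5nM enzyme in 50mM KPO4, 60 min at 37C following 10 min compound preincubation. Stopped with luciferin detection buffer; luminescence read after 20 min.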
Tags give direction and shape of the fitted curve.

Chain of UniProt P05177 (P05177 whole entry, looked up): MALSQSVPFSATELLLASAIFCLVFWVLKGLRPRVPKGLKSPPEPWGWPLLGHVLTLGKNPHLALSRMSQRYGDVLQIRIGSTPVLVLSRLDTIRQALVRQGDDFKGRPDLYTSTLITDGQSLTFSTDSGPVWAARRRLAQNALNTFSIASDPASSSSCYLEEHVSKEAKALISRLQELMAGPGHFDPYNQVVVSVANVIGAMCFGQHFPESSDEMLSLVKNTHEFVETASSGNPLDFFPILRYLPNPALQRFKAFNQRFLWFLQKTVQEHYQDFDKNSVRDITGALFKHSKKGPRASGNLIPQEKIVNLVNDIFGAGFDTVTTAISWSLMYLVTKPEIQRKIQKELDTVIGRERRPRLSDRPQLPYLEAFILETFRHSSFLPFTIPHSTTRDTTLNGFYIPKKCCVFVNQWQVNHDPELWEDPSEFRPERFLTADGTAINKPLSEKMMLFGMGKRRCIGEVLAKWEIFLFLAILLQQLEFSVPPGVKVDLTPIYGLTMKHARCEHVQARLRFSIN
Chain of UniProt Q07343 (Q07343 whole entry, looked up): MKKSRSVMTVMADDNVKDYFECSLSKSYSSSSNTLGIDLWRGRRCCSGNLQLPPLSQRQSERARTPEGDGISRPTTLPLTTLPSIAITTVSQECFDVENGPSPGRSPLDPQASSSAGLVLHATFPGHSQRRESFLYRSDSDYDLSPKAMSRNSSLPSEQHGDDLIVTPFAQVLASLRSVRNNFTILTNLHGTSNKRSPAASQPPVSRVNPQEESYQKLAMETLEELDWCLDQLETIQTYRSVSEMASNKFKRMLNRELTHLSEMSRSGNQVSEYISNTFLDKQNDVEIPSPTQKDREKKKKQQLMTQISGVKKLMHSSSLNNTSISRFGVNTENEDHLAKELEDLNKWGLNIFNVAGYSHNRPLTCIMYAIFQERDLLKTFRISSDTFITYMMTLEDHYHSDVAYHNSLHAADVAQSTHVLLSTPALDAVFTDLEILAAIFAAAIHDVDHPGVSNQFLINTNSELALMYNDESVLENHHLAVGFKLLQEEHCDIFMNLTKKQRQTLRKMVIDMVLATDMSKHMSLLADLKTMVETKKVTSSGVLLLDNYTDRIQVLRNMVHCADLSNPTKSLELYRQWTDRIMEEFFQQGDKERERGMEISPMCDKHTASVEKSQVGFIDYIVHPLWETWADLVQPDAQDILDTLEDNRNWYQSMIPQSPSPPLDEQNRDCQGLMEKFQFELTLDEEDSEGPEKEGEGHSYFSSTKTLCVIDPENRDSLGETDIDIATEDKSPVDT
Chain of UniProt P08684 (P08684 whole entry, looked up): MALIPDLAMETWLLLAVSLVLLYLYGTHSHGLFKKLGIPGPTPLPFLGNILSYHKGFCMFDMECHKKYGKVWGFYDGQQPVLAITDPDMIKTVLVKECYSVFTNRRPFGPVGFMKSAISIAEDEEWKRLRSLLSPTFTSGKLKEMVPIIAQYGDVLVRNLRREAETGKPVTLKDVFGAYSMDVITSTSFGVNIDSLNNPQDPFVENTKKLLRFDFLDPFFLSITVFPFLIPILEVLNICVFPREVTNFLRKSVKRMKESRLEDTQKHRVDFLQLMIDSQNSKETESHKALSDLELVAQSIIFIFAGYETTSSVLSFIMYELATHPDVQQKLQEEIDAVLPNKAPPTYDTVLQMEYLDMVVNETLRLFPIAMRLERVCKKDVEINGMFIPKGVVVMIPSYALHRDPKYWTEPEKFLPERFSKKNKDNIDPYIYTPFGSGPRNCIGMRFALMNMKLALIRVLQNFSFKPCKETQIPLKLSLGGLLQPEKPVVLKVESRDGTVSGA
Chain of UniProt P33261 (P33261 whole entry, looked up): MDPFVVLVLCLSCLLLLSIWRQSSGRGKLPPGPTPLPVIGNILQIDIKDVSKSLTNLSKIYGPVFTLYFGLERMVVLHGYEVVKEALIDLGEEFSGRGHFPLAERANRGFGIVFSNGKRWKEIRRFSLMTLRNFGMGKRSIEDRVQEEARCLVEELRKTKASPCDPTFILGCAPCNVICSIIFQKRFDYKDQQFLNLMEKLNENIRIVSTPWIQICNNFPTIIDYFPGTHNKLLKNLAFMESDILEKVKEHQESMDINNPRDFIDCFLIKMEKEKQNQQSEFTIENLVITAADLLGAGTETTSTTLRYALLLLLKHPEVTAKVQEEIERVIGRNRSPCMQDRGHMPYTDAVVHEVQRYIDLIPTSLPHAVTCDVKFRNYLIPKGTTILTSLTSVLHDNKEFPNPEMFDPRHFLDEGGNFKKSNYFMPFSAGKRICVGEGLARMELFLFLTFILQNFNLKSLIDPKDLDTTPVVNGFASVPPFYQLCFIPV

C[C@@]12CC[C@H](O)C[C@@H]1CC[C@H]1[C@@H]2C[C@@H](O)[C@]2(C)[C@@H](C3=CC(=O)OC3)CC[C@]12O
activity change, negative = inhibition [1]: inconclusive: -31.6% [inhibitor] | activity change, negative = inhibition [2]: inconclusive: -72.9% [inhibitor] [at 17.2 µM] | Potency [3]: inconclusive: 7.55 µM [activator, partial curve]

CN1CCC(OC(=O)C2c3ccccc3Oc3ccccc32)CC1
activity change, negative = inhibition [1]: inconclusive: 30.1% [activator] | activity change, negative = inhibition [2]: inconclusive: -63.4% [inhibitor] [at 17.2 µM]

COCC(C)OC(=O)c1c(N)n(Cc2ccco2)c2nc3ccccc3nc12 (stereo unspecified)
activity change, negative = inhibition [1]: inconclusive: -17% [inhibitor]

C[C@H]1CC[C@@]2(NC1)O[C@@H]1C[C@@H]3[C@@H]4CC=C5C[C@@H](O)CC[C@]5(C)[C@@H]4CC[C@]3(C)[C@H]1[C@@H]2C
activity change, negative = inhibition [1]: inconclusive: -41.8% [inhibitor] [at 7.69 µM] | activity change, negative = inhibition [4]: inactive: -1% [at 11.4 µM] | Potency [5]: inconclusive: 3.16 µM [activator, single point]

COC[C@@H]1OC(=O)c2coc3c2[C@]1(C)C1=C(C3=O)[C@H]2CCC(=O)[C@]2(C)C[C@@H]1OC(C)=O
activity change, negative = inhibition [1]: active: -78.2% [at 38 µM] | activity, negative = inhibition [6]: inconclusive: -31.2% [inhibitor] | activity change, negative = inhibition [7]: inconclusive: -30.2% | Potency [8]: inactive

Cc1ccc(OP(=O)(Oc2ccc(C)cc2)N2C=Cc3ccccc3[C@H]2C#N)cc1
Potency [4]: active: 3.98 µM | activity change, negative = inhibition [2]: inactive: -17.9%

OC[C@H]1CCCN2CCCC[C@@H]12
Potency [4]: inconclusive: 50.1 µM [decreasing]
